# This is one part of the list.
# B1: Q9UKT9 (peptide)
# chain: FACEICGHWFTQKGNLLRHIKL
# B2: Q9UKT9 (peptide)
# chain: FQCNICGAKFTQKGNLLRHIKL
# B3: Q9UKT9 (peptide)
# chain: FECEICGAPFTQKGNLLRHIKL
# B4: Q9UKT9 (peptide)
# chain: FWCEICGHHFTQKGNLLRHIKL
# B5: Q9UKT9 (peptide)
# chain: FWCEICGADFTQKGNLLRHIKL
# B6: Q9UKT9 (peptide)
# chain: LDCEICGFACTQKGNLLRHIKL
# B7: Q9UKT9 (peptide)
# chain: FRCNQCGRPFTQKGNLLRHIKL
# B8: Q9UKT9 (peptide)
# chain: FGCNQCGAAFTQKGNLLRHIKL
# B9: Q9UKT9 (peptide)
# chain: FSCSVCGHEFTQKGNLLRHIKL
# B10: Q9UKT9 (peptide)
# chain: FYCEVCGARFTQKGNLLRHIKL
# B11: Q9UKT9 (peptide)
# chain: FNCSVCGHLFTQKGNLLRHIKL
# B12: Q9UKT9 (peptide)
# chain: FMCPICGRVFTQKGNLLRHIKL
# B13: Q9UKT9 (peptide)
# chain: FGCNVCGAPFTQKGNLLRHIKL
# B14: Q9UKT9 (peptide)
# chain: FQCPICGHWFTQKGNLLRHIKL
# B15: Q9UKT9 (peptide)
# chain: FVCDVCGAYFTQKGNLLRHIKL
# B16: Q9UKT9 (peptide)
# chain: LRCPICGFGCTQKGNLLRHIKL
# B17: Q9UKT9 (peptide)
# chain: FHCDICGADFTQKGNLLRHIKL
# B18: Q9UKT9 (peptide)
# chain: FMCPVCGAGFTQKGNLLRHIKL
# B19: Q9UKT9 (peptide)
# chain: FNCDICGAYFTQKGNLLRHIKL
# B20: Q9UKT9 (peptide)
# chain: FMCPICGREFTQKGNLLRHIKL
# B21: Q9UKT9 (peptide)
# chain: LYCPICGFRCTQKGNLLRHIKL
# B22: Q9UKT9 (peptide)
# chain: FSCPICGHSFTQKGNLLRHIKL
# B23: Q9UKT9 (peptide)
# chain: FVCPICGHWFTQKGNLLRHIKL
# B24: Q9UKT9 (peptide)
# chain: FWCNQCGRMFTQKGNLLRHIKL
# B25: Q9UKT9 (peptide)
# chain: FRCDQCGACFTQKGNLLRHIKL
# B26: Q9UKT9 (peptide)
# chain: FICPQCGAVFTQKGNLLRHIKL
# B27: Q9UKT9 (peptide)
# chain: FICEICGRGFTQKGNLLRHIKL
# B28: Q9UKT9 (peptide)
# chain: FRCEICGAMFTQKGNLLRHIKL
# B29: Q9UKT9 (peptide)
# chain: FICNICGAQFTQKGNLLRHIKL
# B30: Q9UKT9 (peptide)
# chain: FFCNVCGANFTQKGNLLRHIKL
# B31: Q9UKT9 (peptide)
# chain: FCCNQCGHIFTQKGNLLRHIKL
# B32: Q9UKT9 (peptide)
# chain: FECNQCGRIFTQKGNLLRHIKL
# B33: Q9UKT9 (peptide)
# chain: FECNVCGALFTQKGNLLRHIKL
# B34: Q9UKT9 (peptide)
# chain: FICDQCGAVFTQKGNLLRHIKL
# B35: Q9UKT9 (peptide)
# chain: FRCEQCGAWFTQKGNLLRHIKL
# B36: Q9UKT9 (peptide)
# chain: FDCEQCGAGFTQKGNLLRHIKL
# B37: Q9UKT9 (peptide)
# chain: FRCPICGAQFTQKGNLLRHIKL
# B38: Q9UKT9 (peptide)
# chain: FNCEICGHMFTQKGNLLRHIKL
# B39: Q9UKT9 (peptide)
# chain: FGCNQCGHCFTQKGNLLRHIKL
# B40: Q9UKT9 (peptide)
# chain: FTCDVCGANFTQKGNLLRHIKL
# B41: Q9UKT9 (peptide)
# chain: FECEICGHEFTQKGNLLRHIKL
# B42: Q9UKT9 (peptide)
# chain: FACEICGRSFTQKGNLLRHIKL
# B43: Q9UKT9 (peptide)
# chain: FRCEICGALFTQKGNLLRHIKL
# B44: Q9UKT9 (peptide)
# chain: LICNQCGFECTQKGNLLRHIKL
# B45: Q9UKT9 (peptide)
# chain: FCCSVCGHDFTQKGNLLRHIKL
# B46: Q9UKT9 (peptide)
# chain: FWCDVCGAYFTQKGNLLRHIKL
# B47: Q9UKT9 (peptide)
# chain: FKCPICGASFTQKGNLLRHIKL
# B48: Q9UKT9 (peptide)
# chain: FDCEVCGAPFTQKGNLLRHIKL
# B49: Q9UKT9 (peptide)
# chain: FLCDVCGARFTQKGNLLRHIKL
# B50: Q9UKT9 (peptide)
# chain: FFCDVCGALFTQKGNLLRHIKL
# Target: no compound (DMSO)
# Assay: log2 fold change of degron read counts, EGFP-low vs EGFP+ sorted cells; higher = lower degron-EGFP level without compound (poor expression or instability)
# Details: compound: DMSO control; 18 h
# 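Also: jurkat cells carrying a lentiviral library of mutant zinc finger degrons fused to EGFP plus mCherry, mCherry+ cells FACS sorted, degron abundance counted by next-generation sequencing.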
row,Sequence,log2 fold change of degron read counts
1,B1,-0.215
2,B2,-1.47
3,B3,-1.47
4,B4,0.404
5,B5,-1.16
6,B6,0.268
7,B7,0.607
8,B8,-0.0235
9,B9,-2.01
10,B10,-1.53
11,B11,0.275
12,B12,0.146
13,B13,0.409
14,B14,0.567
15,B15,-0.612
16,B16,1.24
17,B17,-1.68
18,B18,-0.0195
19,B19,-0.163
20,B20,-0.534
21,B21,0.607
22,B22,-0.821
23,B23,-1.78
24,B24,1.03
25,B25,-1.14

row,Sequence,log2 fold change of degron read counts
1,B26,0.112
2,B27,-2.84
3,B28,-0.787
4,B29,-0.438
5,B30,-0.161
6,B31,0.598
7,B32,-0.592
8,B33,-1.84
9,B34,-0.767
10,B35,-0.428
11,B36,-2
12,B37,-0.505
13,B38,-0.923
14,B39,0.497
15,B40,-1.34
16,B41,-2.03
17,B42,-2.44
18,B43,-1.21
19,B44,-0.563
20,B45,-0.493
21,B46,0.26
22,B47,-0.768
23,B48,-1.29
24,B49,-1.55
25,B50,-0.191

# Reference: the supplement of paper PMC12645437, “Orthogonal IMiD-Degron Pairs Induce Selective Protein Degradation in Cells” (ACS Chemical Biology, 2025)
